Results taken from PubChem BioAssay (NCI).
Several values for one entry are separate records, joined by “and”; a condition that tells them apart may be missing. Equal entries are not always repeated.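 All cell lines were grown in 96-well plates and treated with compound for 48 hours. Here, GI50 denotes the concentration required for 50% inhibition of growth. TGI: total growth inhibition.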

What follows are molecules tested on NCI-H322M lung (assay: NCI-60 cell line screen, 48 h).

SMILES	GI50 [µM]	TGI
C#CC1(O)C(COP(=O)(O)OC2CC(n3cc(F)c(=O)[nH]c3=O)OC2CO)OC(n2ccc(N)nc2=O)C1O (configuration not stated)	0.0288	> 33.9 µM
Cn1c(=O)c(Oc2ccccc2F)cc2cnc(NC3CCOCC3)nc21	> 25	> 25 µM
O=C(NCCC(F)(F)C(F)(F)C(F)(F)C(F)(F)F)NC1OC(CO)C(O)C(O)C1O (configuration not stated)		> 100 µM
CO/C1=C\C(C)=C\C(C)C(O)C(C)C/C(C)=C/C=C/C(OC)C(C(C)C(O)C(C)C2(O)CC(O)C(C)C(C(C)C)O2)OC1=O (configuration not stated)	3.37	23.9 µM
COC(=O)/C=C(\C)C(=O)N(C)c1ccccc1I		> 100 µM
C=C1C(=O)OC2(C)C3CCC(C3)C12 (configuration not stated)		> 100 µM
C=C1C(=O)OC2CC1C(O)C/C(C)=C/CC/C(C)=C/C(O)CC2C (configuration not stated)		23.2 µM
C=C1C(=O)O[C@H]2[C@H]1CC/C(COC(=O)NCc1ccc(Cn3c(=O)sn(CCCCl)c3=O)cc1)=C\CC[C@@]1(C)O[C@@H]21	14.1	27.2 µM
CC1(C)OC(=O)C=C([O-])O1.CC1(C)OC(=O)C=C([O-])O1.O=S(=O)([O-])c1ccc([O-])c2ncccc12.O=S(=O)([O-])c1ccc([O-])c2ncccc12.[Ti+4]	> 100	> 100 µM
CCOC(=O)c1cc(C(=O)c2ccccc2)n2nc(-c3ccc(Cl)cc3)ccc12		46.7 µM
CCNC(=O)C#CC(=O)NCC	> 100	> 100 µM
CC(C(=O)ON1C(=O)CCC1=O)c1ccc(C(=O)c2ccccc2)s1 (configuration not stated)		> 100 µM
Cc1ccc(OCC2OC(n3cnc4c(N(C)C)nc(Br)nc43)CC2Oc2ccc(C)cc2)cc1 (configuration not stated)		> 100 µM
Clc1cc2c(c(CSC3=NCN(CC4CC4)CN3)c1)OCOC2		80.7 µM
NC(=Nc1ccc(O)cc1)S(=O)(=O)O		> 100 µM
C=C=C(CC)C(C(=O)OC)N(CC)CC (configuration not stated)		> 100 µM
O=C1CC(=O)c2c(O)cc(O)c(c2O)-c2c(ccc(O)c2O)C2=CC(=O)c3c(O)cc(O)c(c3O2)-c2c1ccc(O)c2O (tested in a mixture with another compound)		> 50 µM
CCOC(=O)C(=Cc1ccccc1[N+](=O)[O-])C(=O)OCC	11.3	25 µM
CN(CN1C(=O)C2Cc3ccccc3CN2C1=O)c1ccccn1 (configuration not stated)		> 100 µM
O=C(N=C1SCCN1C(=O)C(C(F)(F)F)C(F)(F)F)C(C(F)(F)F)C(F)(F)F		> 100 µM
Clc1ccc2[nH]cc(-c3nc(-c4c[nH]c5ncccc45)cs3)c2c1	4.29	23.3 µM
Cc1sc(C)c(Cc2c(C)sc(C)c2CCl)c1CCl	> 100	> 100 µM
COCCOC(=O)NC(=O)Nc1ccc(/C(=N/O)c2ccc(Cl)cc2)cc1	0.312	59.3 µM
Cc1ccc(S(=O)(=O)/N=C(\NN)Nc2ccc(Cl)cc2)cc1		> 100 µM

SMILES	GI50 [µM]	TGI
COc1ccc2[nH]c(Cl)c(/C=C3/C(=O)Nc4cc(C)c(OC)cc43)c2c1		26.3 µM
O=c1[nH]c(=O)n(C2OC(CO)C(O)C2O)c2c1CCCC2 (configuration not stated)		> 100 µM
O=C1Sc2ccc(Br)cc2C(=O)Sc2ccccc21		36.5 µM
CC(=O)[C@@H]1CCC=C2CC[C@]3(C)[C@@H](CC[C@@H]4[C@@]5(C)CCCNC(C)(C)[C@@H]5CC[C@]43C)[C@H]21	1.73	3.14 µM
CC(C)C(C/C=C1\CC(CO)(COC(=O)c2ccccc2)OC1=O)C(C)C (configuration not stated)		23.1 µM
CCOC(=O)/C(=C\c1ccc(N(C)C)cc1)S(=O)(=O)C(F)(F)C(F)(F)C(F)(F)C(F)(F)F		> 100 µM
CC[C@@]1(O)C(=O)NCc2c1cc1n(c2=O)Cc2cc3c(N)cccc3nc2-1	4.23	67.8 µM
CC/C=C\C[C@H](O)C/C=C1/C(=O)C=C[C@@H]1C/C=C\CCCC(=O)N(C)C	1.72	5.78 µM
O=C1CSC(/C(=C\c2ccc(Cl)cc2)c2nc3ccccc3[nH]2)=N1		20.4 µM
C=C1C[C@@H](O)C[C@@]2(C)C[C@@H]3OC(=O)C(=C)[C@@H]3C[C@H]12		70.8 µM
N=C(N=C(N)N)N1CCN(c2ccncc2)CC1	> 1000	> 1000 µM
c1ccc(-c2sc(-c3cccs3)cc2Cc2cccs2)cc1		> 10 µM
COc1cc2c3c(c1)c1cc(OC)c(OC)cc1c[n+]3CC2	12.7	50 µM and > 100 µM
Clc1nc(Cl)c(Cl)c(Cl)n1		31.6 µM
O=C(Nc1nc2ccccc2n1Cc1ccccc1)NC12CC3CC(CC(C3)C1)C2		79.7 µM
CNc1ccc(-c2nc3cc(C)ccc3o2)cc1		> 100 µM
Cn1c(=O)nc2n(-c3cccc(F)c3)c3ccccc3nc-2c1=O		82.3 µM
O=C(/C=C/c1ccsc1)c1ccco1		35.1 µM
CCOC(=O)c1[nH]c(-c2ccc(Cl)cc2)cc1-c1cccnc1	0.664	> 100 µM
Cc1cc(-c2[nH]c(C(=O)O)cc2I)on1		> 100 µM
Cc1ccsc1/C=N/Nc1cc(C)c2cccc(C)c2n1		> 100 µM
NC(=O)c1nnc2cc(F)ccc2c1N		> 100 µM
CCCCCC(=O)c1ccc2[nH]c3c(C)cc([N+](=O)[O-])c(C)c3c2c1		> 100 µM
O=C1C=C(Br)C(=O)C12CCc1ccccc12 (configuration not stated)		56.2 µM

SMILES	GI50 [µM]	TGI
C1CSCCCSCCSCCCSC1		> 100 µM
Nc1ccc(S(=O)(=O)C23CC4CC(CC(C4)C2)C3)cc1		> 100 µM
c1ccc(C2=Nc3nc4ccccc4n3C(c3ccccc3)C2)cc1 (configuration not stated)		> 100 µM
Cc1nc2c(n1C(C)(C)C)C(=O)c1ccccc1C2=O		> 100 µM
COC(=O)c1sc(C(=O)OC)c2c1CSC2		> 100 µM
COc1cc(C2SCC(=O)N2c2ccc(-n3c(-c4ccccc4)nc4ccccc4c3=O)cc2)ccc1O (configuration not stated)		> 100 µM
O=C(Nc1c[nH]c(=O)[nH]c1=O)C(Cl)Cl		> 100 µM
COc1cc2c(c(OC)c1OC)-c1ccc(SC)c(=O)cc1[C@@H](OC(C)=O)CC2		> 100 µM
C(CCC[Te][Te]CCCCCCOC1CCCCO1)CCOC1CCCCO1 (configuration not stated)		41.2 µM
Cc1ccc(S(=O)(=O)NC(=O)NC23CC4CC(CC(F)(C4)C2)C3)cc1		> 100 µM
COc1cc(OC)c2c(O)c3c(cc2c1)CC(C)(C)CC3=O		> 100 µM
O=C1NC(N/N=C\C(O)C(O)C(O)CO)=N/C1=C/c1ccc(Cl)cc1 (configuration not stated)		> 100 µM
CC1=C[C@H]2c3c(c(O)c(O)c4oc5ccccc5c(=O)c34)[C@H](c3cc(O)c(O)c4oc5ccccc5c(=O)c34)[C@H]2C(C)(C)C1	2.07	13.6 µM
CC(C)=CC(=O)O[C@H]1C(=O)O[C@@H]2C[C@H]3[C@H](C)C(=O)C(O[C@@H]4O[C@H](CO)[C@@H](O)[C@H](O)[C@H]4O)=C[C@]3(C)[C@H]3[C@@H](O)[C@H](O)[C@]4(C(=O)O)OC[C@]32[C@@H]14	> 100	> 100 µM
NNc1cccc(/C=C/c2ccccc2)cc1=O	5.83	64.3 µM
CCCCCCCCCCN(CCCCCCCCCC)CC(=O)c1ccc2cc(Br)c3ccccc3c2c1	11.3	24.1 µM
COc1ccc(O[C@H](COCc2ccccc2)C[C@@H]2COC(C)(C)O2)cc1		> 100 µM
O=C(Nc1nc2c(=O)[nH]cnc2s1)c1ccccc1		> 100 µM
COc1cc2noc(-c3ccccc3)c2cc1OC		> 100 µM
COc1ccccc1-c1cc(=O)c2ccccc2[nH]1		> 100 µM
COC(=O)c1c2c(c(C)[n+]([O-])c1C)C(=O)C=C(NCc1ccc(F)c(F)c1)C2=O	0.704	2.09 µM
CCCCNN		> 100 µM
CN(C)N1C(=O)c2ccccc2NC1c1ccccc1 (configuration not stated)		> 100 µM
CC(C)c1ccc(/C(C(=O)O)=C(\O)C(=O)O)cc1		> 100 µM

SMILES	GI50 [µM]	TGI
O=C(NCCCCCCNC(=O)n1cc(F)c(=O)[nH]c1=O)NCCCOCCOCCCNC(=O)C(O)C(O)C(O)C(O)CO (configuration not stated)		> 2.5 µM
CCOC(=O)N1CCN(c2ccc3c(C)cc(C)nc3n2)CC1		> 100 µM
COc1ccc2c(c1OC)C1=C(C2=O)c2cc3c(cc2CCN1)OCO3		> 100 µM
O=C1C(F)=CC(COC(c2ccccc2)(c2ccccc2)c2ccccc2)OC1n1cc(F)c(=O)[nH]c1=O (configuration not stated)		20.6 µM
FC(F)(F)c1ccccc1N1CCN(c2nc(-c3cccs3)nc3ccc(Br)cc23)CC1		> 100 µM
CN1c2ccccc2N(C)C2C1N(C)c1ccccc1N2C (configuration not stated)		> 100 µM
O=C1C[C@@H]2C(COC(=O)c3ccccc3)N(OCc3ccccc3)C[C@@H]2O1 (some centres not stated)		> 100 µM
CCN(CC)CCCOC(=O)/C=C/c1c(C)[nH]c(=O)[nH]c1=O		> 625 µM
CCCCCCCC(=O)OC(CBr)COC(=O)C(C)(C)C (configuration not stated)		> 100 µM
C/C(=N\NS(=O)(=O)c1ccccc1)c1ccccc1		> 100 µM
COc1ccc(-c2cc(/C=C3\C(=O)Nc4ccc(Cl)cc43)[nH]n2)cc1	7.05	22.5 µM
Cn1ccn2c3nc4ccccc4nc3c(=O)c(C#N)c12		> 100 µM
N#Cc1c(-c2ccccc2)cc(-c2ccc(Nc3nc(Nc4ccc(Cl)cc4)nc(Nc4ccc(Cl)cc4)n3)cc2)nc1N	61	> 100 µM
COC(=O)c1ccccc1C#CC#Cc1ccccc1C(=O)OC		> 10 µM
CC(=O)N1CCc2c([nH]c3ccc(Br)cc23)C1c1ccccc1 (configuration not stated)		> 10 µM
Nc1nc2c(c(=O)[nH]1)N(C=O)C(CNc1ccc(C(=O)N[C@@H](CCC(=O)O)C(=O)O)cc1)CN2 (some centres not stated)		> 125 µM
O=C(Nc1ccc(Cl)cc1)c1ccc(NC2=C(Cl)C(=O)N(Cc3ccccc3)C2=O)cc1	20.8	96.3 µM
Cc1cc(O)c2c(c1O)C(=O)C13C(=C2O)C(=O)C2C(O)C1C1C(O)C3C(=O)C3=C(O)c4c(O)cc(C)c(O)c4C(=O)C321 (configuration not stated)		1.88 µM
COC1CC2C=C(C)/C=C/C=C/C(=O)NC(c3ccccc3)C/C=C/CCC(O)CC(=O)C2=C1O (configuration not stated)	0.337	1.24 µM
O=c1nc(Nc2cccc(Cl)c2)oc2cc(Cl)oc(=O)c12	18	43 µM
COc1ccc2c(Nc3ccc(NS(C)(=O)=O)cc3)c3ccccc3nc2c1	1.02	8.74 µM
CCCCCCCCCCCCCCCCCCNc1ccn(C2OC(COP(=O)(O)OCC3CCC(n4cnc5c(=O)[nH]cnc54)O3)C(O)C2O)c(=O)n1 (configuration not stated)		> 100 µM
C=CC1ON(Cc2ccccc2)CCc2cc(OC)c(OC)cc21 (configuration not stated)		> 100 µM
